Test results as given in publication PMC4336329 (PLoS ONE, 2015).
About 14,000 (4.5%) of roughly 310,000 compounds showed an effect of 50% or more. Effects have a minus sign here. This is one part of the list.

Target: human ether-à-go-go-related gene (hERG) potassium channel (human, UniProt Q12809)
Experiment: primary screen, population patch clamp on CHO cells stably expressing hERG
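Also: peak tail current of the secondary pulse compared with the same well before compound.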

human ether-à-go-go-related gene (hERG) potassium channel, sequence (Q12809 whole entry, looked up): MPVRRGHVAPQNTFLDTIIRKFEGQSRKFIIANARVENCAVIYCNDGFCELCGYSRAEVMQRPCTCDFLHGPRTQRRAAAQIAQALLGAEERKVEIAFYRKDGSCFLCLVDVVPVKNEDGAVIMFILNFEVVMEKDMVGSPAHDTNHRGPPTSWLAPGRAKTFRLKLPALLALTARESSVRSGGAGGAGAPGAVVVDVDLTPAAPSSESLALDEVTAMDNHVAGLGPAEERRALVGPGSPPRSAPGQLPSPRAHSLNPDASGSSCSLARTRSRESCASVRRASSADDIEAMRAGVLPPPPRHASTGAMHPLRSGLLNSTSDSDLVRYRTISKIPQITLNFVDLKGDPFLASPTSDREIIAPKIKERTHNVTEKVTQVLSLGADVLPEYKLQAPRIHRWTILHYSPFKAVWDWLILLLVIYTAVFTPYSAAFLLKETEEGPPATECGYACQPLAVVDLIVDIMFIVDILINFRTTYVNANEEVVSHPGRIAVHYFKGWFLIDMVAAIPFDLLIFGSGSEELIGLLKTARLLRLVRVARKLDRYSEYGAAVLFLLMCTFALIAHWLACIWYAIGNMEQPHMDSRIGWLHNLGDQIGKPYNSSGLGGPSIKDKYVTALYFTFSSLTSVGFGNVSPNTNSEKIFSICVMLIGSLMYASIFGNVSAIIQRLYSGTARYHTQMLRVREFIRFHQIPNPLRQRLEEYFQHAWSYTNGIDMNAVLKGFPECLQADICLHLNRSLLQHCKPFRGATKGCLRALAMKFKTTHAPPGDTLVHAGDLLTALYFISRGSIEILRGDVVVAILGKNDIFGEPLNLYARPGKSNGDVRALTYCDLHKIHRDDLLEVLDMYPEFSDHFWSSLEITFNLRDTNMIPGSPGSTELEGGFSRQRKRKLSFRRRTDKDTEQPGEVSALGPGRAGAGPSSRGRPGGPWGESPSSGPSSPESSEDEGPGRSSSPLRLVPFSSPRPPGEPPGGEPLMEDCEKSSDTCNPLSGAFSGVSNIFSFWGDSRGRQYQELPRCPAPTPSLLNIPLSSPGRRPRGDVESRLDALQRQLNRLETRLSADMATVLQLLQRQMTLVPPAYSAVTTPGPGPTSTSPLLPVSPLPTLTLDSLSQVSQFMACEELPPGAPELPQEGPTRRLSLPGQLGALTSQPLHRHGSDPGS

Compound | hERG current change (%, negative = inhibition) at 10uM
CN(C)S(=O)(=O)c1ccc(NC(=O)c2ccc(Br)o2)cc1 | -9.84%
Cc1cc(OCC(=O)N2CCOCC2)ccc1[N+](=O)[O-] | 2.35%
O=C(NNC(=S)NCc1ccccc1)c1ccc(Br)cc1 | 11.5%
Cc1ccc(NC(=O)c2nc[nH]c2C(=O)NCc2ccccc2)cc1 | 1.89%
Cn1ncc(Cl)c1C(=O)NCC1CCCO1 (stereo not shown) | 9.21%
Cc1c(C(=O)Nc2ccc(Cl)cn2)oc2ccccc12 | 16.8%
O=C(/C(=C/c1ccc(Cl)cc1)c1nc2ccccc2[nH]1)c1cccs1 | 2.82%
CN(Cc1nc(-c2ccc(Cl)cc2)no1)C(=O)c1ccc2c(c1)OCO2 | -17.8%
CCC(C(=O)OCCN(CC)CC)c1ccccc1.O=C(O)CC(O)(CC(=O)O)C(=O)O (stereo not shown) | 4.45%
COc1ccccc1OCCNC(=O)C(CCSC)NC(=O)COc1ccccc1 (stereo not shown) | -27.7%
CC(=O)Nc1ccc(NC(=O)c2ccccc2N(C)S(C)(=O)=O)cc1 | 9.15%
CCOC(=O)/C(=C\C=C1/Sc2ccccc2N1CC)C(C)=O | -19%
COc1ccc(OCC(=O)Nc2ccccc2Cl)cc1 | 13.7%
Cc1cc(C)cc(C(=O)Nc2ccc(N3CCN(S(C)(=O)=O)CC3)cc2)c1 | 15.7%
CCCN(CC(=O)Nc1ccccc1C)C(=O)c1ccc(N2CCCCC2)c([N+](=O)[O-])c1 | -43.7%
CCOn1c(=O)c(-c2cccc(Br)c2)[n+]([O-])c2ccccc21 | 3.23%
COCC(=O)N1CCC(n2nccc2NC(=O)CCOc2ccccc2)CC1 | 17.4%
COc1cc(Cl)c(C)cc1NC(=O)CSc1ccc(NC(C)=O)cc1 | 0.375%
CCCn1nc([N+](=O)[O-])c(C(C#N)c2nc3ccccc3o2)c(Cl)c1=O (stereo not shown) | 19.5%
CN(C)CC#CCOC(c1ccccc1)c1ccccc1.Cl | -16.1%
COc1cc2c(cc1OC)C(c1cccs1)NCC2 (stereo not shown) | 1.72%
COc1cc2c(-c3cc(F)cc(F)c3)c(-c3ccsc3)oc(=O)c2cc1OC | 9.35%

Compound | hERG current change (%, negative = inhibition) at 10uM
CCN1C(=O)/C(=C/c2ccc(N(CC)CC)cc2OC)C(=O)NC1=S | 3.26%
COc1ccc(C(=O)Nc2ccc3c(c2)Cc2ccccc2-3)cc1 | 17.1%
O=C(Nc1ccc(-c2csc(Nc3cccc(C(F)(F)F)c3)n2)cc1)c1cc([N+](=O)[O-])cc(C(F)(F)F)c1 | 0.0561%
COc1ccc(CCn2c(O)c(C=NCc3ccc4c(c3)OCO4)c(=O)[nH]c2=O)cc1OC | -9.79%
O=C1CCCCCC1C1(O)C(=O)Nc2ccccc21 (stereo not shown) | -1.78%
C#CCOCCOCCOCCNc1nc(N2CCN(C(=O)Cn3cc(CCC[NH+]=C(N)N)nn3)CC2)nc(N2CCN(C(=O)[C@H](CCCC[NH3+])n3cc(CCCC)nn3)CC2)n1.[Cl-] | 7.39%
Cc1ccc(C(=O)N/C(=C\c2ccc(-c3cccc([N+](=O)[O-])c3)o2)C(=O)NC(C)(C)C)cc1 | 1.94%
COc1ccc(NC(=S)Nc2cccc(S(=O)(=O)N3CCCCC3)c2)cc1 | -12%
COc1ccc(-c2noc(-c3ccccc3C(=O)NCc3ccco3)n2)cc1 | 3.2%
O=C(NCc1ccc(F)cc1)c1cc2c(s1)CCCC2 | -7.45%
CN(C)CCNC(=S)Nc1ccc(-c2nc3ccccc3[nH]2)cc1 | -4.03%
Nc1ccc2ccc3cccc[n+]3c2c1.[O-][Cl+3]([O-])([O-])[O-] | 7.27%
O=C(CSc1nnc(-c2ccncc2)o1)NCc1ccc(Cl)cc1 | -46.5%
CCc1ccccc1NC(=O)C1CCCN1S(=O)(=O)c1ccc(-c2ccc(=O)[nH]n2)s1 (stereo not shown) | -54.7%
COc1cccc(C(=O)N2N=C(c3ccccc3)CC2(O)C(F)(F)F)c1 (stereo not shown) | -26.7%
O=C(c1ccccc1)N1CCN(Cc2ccccc2Br)CC1 | -2.16%
O=c1c(Cc2ccccc2)c(O)c2cccc3c4c(n1c23)CCCC4 | 7.55%
Cc1ccc(S(=O)(=O)CCC(=O)OCC(=O)N(Cc2ccccc2)C(C)C)cc1 | -33.1%
CCN(C(=O)COC(=O)/C=C/c1ccc(OC(F)F)c(OC)c1)C1CCS(=O)(=O)C1 (stereo not shown) | -13.3%
Cc1cccc(C)c1NC(=O)N1C(C(=O)O)CSC1C(=O)O (stereo not shown) | 11.9%
O=C(O)c1ccc(CN2C(=O)c3ccc(C(=O)O)cc3C2=O)cc1 | -2.03%
N=c1sccn1CC(=O)Nc1cc(S(=O)(=O)N2CCCCC2)ccc1Cl | -62.5%

Compound | hERG current change (%, negative = inhibition) at 10uM
CCn1c(SCc2ccc(Cl)cc2)nc2nc3c(cc2c1=O)CCCC3 | 2.76%
CC(/C=N/NC(=O)c1cc(-c2ccc(C)o2)[nH]n1)=C\c1ccccc1 | 1.33%
Cc1cccc(Nc2nnc(SCC(=O)Nc3ccc(C(=O)O)cc3)s2)c1 | 4.2%
CCc1nnc(NC(=O)c2ccc(S(=O)(=O)N3CCCC(C)C3)cc2)s1 (stereo not shown) | 5.07%
CN(C)c1ccc(CNS(=O)(=O)c2csc(C(N)=O)c2)cc1 | 4.97%
CC(=O)c1ccc(NC(=O)Nc2cccnc2)cc1 | 7.05%
CCNc1ccc(S(=O)(=O)N(C)C)cc1NCC(=O)Nc1c(F)cccc1F | -27.9%
COc1ccc(OC)c(S(=O)(=O)Nc2cccc3ccc(O)cc23)c1 | 6%
COc1ccc(NC(=O)C(=O)c2cn(CC(=O)N3CCOCC3)c3ccccc23)cc1OC | 16.5%
CCOC(=O)C(=NC(C)C)NNc1cc(Cl)ccc1Cl | 2.25%
COc1ccc(Br)cc1CN(C)CC(=O)Nc1cccc(S(N)(=O)=O)c1 | -25.6%
COc1cccc(C(C(=O)NC2CCCC2)N(C(=O)c2ccco2)c2ccc(C(C)=O)cc2)c1OC (stereo not shown) | -13.3%
COc1ccc(C(=S)Nc2ccc(C)cc2)cc1 | 8.3%
C=CC(C)(C)c1c(O)c(CC=C(C)C)c(O)c2c(=O)c3ccc(O)c(O)c3oc12 | 22.1%
C=CCOc1ccc(CNCc2cccnc2)cc1.Cl | 7.73%
O=C(N/N=C/c1ccccc1O)C1(O)c2ccccc2-c2ccccc21 | 7.48%
CCCNC(=O)C(Cc1ccccc1)NC(=O)c1ccccn1 (stereo not shown) | 9.72%
CCc1cc(-c2[nH]ncc2-c2ccc([N+](=O)[O-])cc2)c(O)cc1OC | -18%
COc1ccc(C2C(C(=O)O)CCC(=O)N2c2ccc(C)cc2)cc1OC (stereo not shown) | -10.6%
Cc1ccc(CNC(=O)c2ccc(N3CCC4(CC3)CC(c3ccccc3)=NO4)c([N+](=O)[O-])c2)cc1 | -4.67%
CCOc1ccc2nc(CN3CCN(Cc4ccccc4OCC)C(CCO)C3)ccc2c1 (stereo not shown) | -56.9%
Cc1ccc(C2=NN(CC(=O)NCc3cccnc3)C(=O)CC2)cc1 | -4.87%

Compound | hERG current change (%, negative = inhibition) at 10uM
O=C(NCCCN1CCCCCC1)C1CC(=O)N(CCc2ccccc2)C1 (stereo not shown) | 11.3%
CCC1(CC)C(=O)NC(=O)NC1=NCCc1ccc(O)cc1 | -0.161%
O/N=C\c1cnc(N2CCN(c3ccccc3)CC2)s1 | 9.11%
COc1ccccc1NC(=O)/C=C1\NC(=O)CS1 | 5.12%
O=C(c1ccccc1)C1CCN(C(=O)c2cccs2)CC1 | -8.56%
Clc1ccc(-c2nn3c(C4COc5ccccc5O4)nnc3s2)cc1 (stereo not shown) | 9.73%
COc1ccc2c(c1)C=C([C@@H]1C[C@H]3CN(c4ccccc4)C(=O)[C@]34CCCN14)CO2 | -49.2%
Nc1cc(OC(=O)c2ccco2)nn1S(=O)(=O)c1ccc(F)cc1 | 17.4%
O=C1CC(C(=O)Nc2ccc(Br)cc2)S/C(=N\N=C\c2ccco2)N1 (stereo not shown) | 9.17%
CC(NC(=O)/C(=C/c1cccc([N+](=O)[O-])c1)NC(=O)c1ccco1)C(=O)O (stereo not shown) | 0.397%
COc1cc2c(cc1OC)C(C)N(C(=O)c1cc3c(s1)-c1c(C)cccc1OC3)CC2 (stereo not shown) | 2.9%
CN1CC=C(/C=C/c2ccc(-c3ccccc3)cc2)CC1.Cl | -50.1%
CC(=O)Nc1ccc(NC(=O)C(NS(=O)(=O)c2ccc3c(c2)OCCO3)C(C)C)cc1 (stereo not shown) | 3.56%
O=c1c2c(-c3ccccc3)csc2ncn1/N=C/c1cccc([N+](=O)[O-])c1O | 19.5%
C=CCN(c1cccc(C(F)(F)F)c1)S(=O)(=O)c1cccc(C(=O)OCC(=O)Nc2ccccc2)c1 | -4.95%
Cc1nn(C)cc1C(=O)NNC(=S)Nc1ccccc1 | 7.56%
Cn1nnc(NC(=S)NC(=O)Cc2ccccc2)n1 | -3.02%
CN(C)c1nc(-c2ccccc2)[n+](C)s1.[O-][Cl+3]([O-])([O-])[O-] | 7.3%
C[C@]12CC[C@H](OS(=O)(=O)O)CC1=CC[C@@H]1[C@@H]2CC[C@]2(C)C(=O)CC[C@@H]12.O.[Na] | 2.13%
